Assay results published in the RNAGym collection of RNA variant scans (doi:10.7554/elife.90254).
The source gives no read counts; variants with many changes may rest on few reads.

B1: OR4K15 (parent)
chain: GUUAACGGUCAUAGGCCAUGGAAACUAGGAGCACCAUUUCGCUGCCAGUGAAGAAAUGAACAAAGAAAAUCUGGGCCAGGCAGGCAUCAAAAGAAAUAGUCUUGCGCUCAACCAGAAAGUCUGUAAUCAUUUUAAGGGUA

Variants of: B1
Assay: self-cleavage, relative activity (ratio to wild type); higher = more cleavage; in vitro, sequencing; the parent is a self-cleaving ribozyme

Variant	self-cleavage
U39C G80A A90G	0.26
U38C U72C A82U	0.18
U43A A52G A86G	1.46
U39C A54G A118G	0.83
C40U U43C A68G A118U	0.38
U38C G41A U49C A60G	0.94
C40U A68G A92G	1.45
C42U U43C A52G A98U A129G	0.98
U39C A47U A67G A92U	0.13
U39C A95G U108C A126G U131C	0
G41A G50A A62G U124A	0.96
U39C A63G U70C	1.04
U43A A51U A91G A111U A116U	0.01
U39C A51G A66G A89U	1.36
U39A A96G A118G	0.99
U39C U102A U130C	0.7
C40A A69G A116G	0.63
U39C A52G A66G U70C G79A	0.33
U38C U87A A125G	0.53
U39C A47G A114G	0.16
U39C A63G A116G A126G	0.79
U43A A55G U139C	1.34
G41A U43C A54G	2.37
U39C A82G A117G	0.33

Variant	self-cleavage
C40U A62G A135U	1.94
U39C A69U A118G A125G	0.14
G41A A116G A135G	0.32
U43A A111G U132C	0
U39C A47U A59U A63G U72G	0.38
U39C A52G A116G	0.6
G41U U100C G123A	2.43
U43A A91G U102C U132C	2.02
U39C A60G A91G	0.62
U43A A56G A91U	1.66
U43A A67G A78U U108C U122A	0.02
U39C A51U U127C	0.71
U39C A66U A82G A116G	0.26
U39A U49C A92G	0.99
U39C C40G G65A A82U A94G U124A	0.11
C42U A52G U70A A92G U127C	0.22
U39C A56G A94U	1.67
G41A A54G A89G	1.72
U39A A95C A98G A129G	0.99
U39C A68U A140G	0.98
U39C U108A A110G A114U A118G	0
U39A A56G U100G U102A	0.43
U39C A59G U120C A126U	0.4
U39A U43A A86U	1.92

Variant	self-cleavage
U39A A54G A63G A116G A140G	0.59
U39C C40U A55G A59G	0.58
U43A A51G A66U	1.61
U39C U57A C101A	0.14
U38C C42A A52G U57A	0.68
U39C A67G A68G A90G	0.93
C40U A56G A86C A110U A125G	0.24
U43A A60U U87C A96U A116G	1.34
U39A A52G G79A A82U A91G A92G	0.23
U39A A96G U139C	1.9
U39C A68G A69G A95C	0.71
U39C A91G G115U	0.13
U38C U39A A69U U108A U122C	0.02
U39C A56G A60G A140G	1.4
U39C A63G G74A A78G	0.21
U39C A89G A98G U133C	0.91
C42U U108C A117G	0.01
U43A A66G U103C	1.56
U38C U39C U72C	0.38
U39C A67G A91G	1.22
U39C U43A A129G	0.78
U39C C77A U108C	0.03
U39A U49C U139A	0.63
U39A A78G A92G A111G	0.03

Variant	self-cleavage
U39A A62G U70A	1.14
U39C A91G A96G U97A U122C	0.49
U39C A60G A116G	0
U38C U49C U122C	1.34
C42U A59G A60G A111G	0.02
G41A A110U A140G	0.58
U39C A52U A95G	1.93
U38C C113U A117G	0.07
U39C A66U A117G	1.72
U39C A47G A60G A67G C77U C109A	0.08
U39C A52G U108C A135G	0.02
G41A U49C A60G U131C	0.83
U39A U57C A118G	1.46
U39C A82G U87C A117G	0.36
U39C A86G U100C	1.95
U43A G79U A86G G137A	0.06
U39C U132C A140G	1.5
G41C U43A U97C	0.87
U39C G83U A91G	0.09
U38C U102A U108C	0.01
U38G A78G A94U A118G U131C U132C	0.18
U38C U43C A90G A125G	0.44
U39A A89G A111G A140G	0
U39A A47G A64G U127C	0.56

Variant	self-cleavage
U39G A55C U97A A111G A114G	0.02
U39A C61U A68G U87C A94U	1.5
U39C A110G U130C U133C	0.1
U39A A51G A54G A92G	1.87
U39A U70C U102C	1.25
U39C A52C A55G A60G U97G G115A	0.01
C40A U43C A52G A82G U108C A110G U120C	0.01
U39A A89U U120C	1.28
U39C U102C U108A A117G	0
C40U A56C A110G	0.06
U38G A67G A135G	2.34
U39A A51G A95G	1.88
C42U U49C A54G	1.26
U39C A92U A140G	2.04
U38C U103C A125G	0.2
U43A A64G A78U A91G A92U U108A	0.02
G41A U87C U122A	0.65
U38C U87C U102C	2.17
U43A A52G A78G	0.23
U39C U49A A64U	1.61
U39A A55G U139C	1.24
U39A A82G U132C U133C U139C	0.69
U43A A59G U70C A90G U100C U122A	1.28
U39C U49C U70C A94G	0.81

Variant	self-cleavage
U39C A51G U131C	1.89
G41A A56G A95G	2.04
U39C A55G A59G U100C	1.62
U38C U100C U132C	3
U38C U72C A92G	0.02
U38G A52G A59G	0.7
U38C U43C U131C	1.31
C40U A51C U57C G80A A110G	0.01
U39C A63G A86U U120C	1.02
U43A A54U A66U U97A U103C	0.07
U43A A59G U70A A82U	0.09
U43A A51G A91G A140G	0.93
U39C U100C U127C	1.03
G41A A60G A118G	0.86
G41A U49G A64G A90G	1.32
U39C A55G U127A	2.69
U39A A47U A56G A134G	1.39
U43A A54G U57C A68G G119A	2.52
G41U A69G A78G A94G A95G A111G	0.03
U38C U39A A94G A114G	0.65
U38C U43C A126U	1.14
U38C U49A A54G A86G	1.19
U39C A59G A68U A90G	1.36
U38C U70C A114U	0.02

Variant	self-cleavage
U39C A59G A64U U127G	1.27
C42U U72C A111G	0.02
U39G A52G A91G	0.89
U39C A92G U103C	1.32
U39C A56U U72G	0.15
U39C U102C C109U	0.56
U39C A51G A67G A68C A94U	1.11
U43A A62G A86G A90G	0.84
U39C U49C A52G A78U A94G	0.11
C40A A52U U72C A126G	0.05
U43A A56G A78G C85U	0
U39C A78U A86G U87A U120A	0.22
G41U A96G G115A G138U	0.38
U38G U43G G83A A110G A129G	0.12
U39C A69C A94G G136A	1.63
C40U A62G U87C A94G U133C	0.56
U39C U57A A67G A68G U139G	0.34
U39C A69G A135U	2.04
U43A A66U A86G U131C A140U	0.78
U39C A52G A90G U100C U122C	1.39
U38C G41A A78G	0.4
U39C A78G A91G U97A	0.17
C40A A69U U70C A116G	2.01
